From ChEMBL document CHEMBL4888484, “Replenishing the malaria drug discovery pipeline: Screening and hit evaluation of the MMV Hit Generation Library 1 (HGL1) against asexual blood stage Plasmodium falciparum ,using a nano luciferase reporter read-out” (2022)
Among all 150,000 compounds or so, about 540 (0.36%) showed an effect of 50% or more. The list shows a part of the results.

Test system: Plasmodium falciparum
Assay: Primary screen in NF54 nanoGlo assay, in single point, at 2uM, 72h; a lower Z score goes with more inhibition
Type: functional, Erythrocyte
Conditions: timepoint 72 hour

| Structure (SMILES) | % Inhibition [%] | Z score |
| --- | --- | --- |
| COCCN1C[C@@H](Cc2ccnc3c(C)c(C)ccc23)CC1=O | 1 | -0.19 |
| CC(C)n1ccnc1CN(C)CCCN1CCCCCC1 | -3 | 0.52 |
| COc1ccc(F)cc1S(=O)(=O)N1CC(=O)N2C[C@@H](OC)C[C@H]2C1 | -6 | 0.86 |
| COc1ccc(CCNC(=O)[C@H]2CC[C@H](Cn3c(=O)[nH]c4ccccc4c3=O)CC2)cc1 | -1 | 0.13 |
| Cc1cc(C)nc(-n2nc(C)c(CC(=O)N(C)C3CCCC3)c2C)n1 | -6 | 0.88 |
| COc1ccc(O[C@H]2CCN(C(=O)NCc3ccc(F)cc3)C2)nn1 | -8 | 0.92 |
| CCOC1(C)CN(c2ncnc3scc(C)c23)C1 | 2 | -0.28 |
| CCCc1nn(-c2ccccc2)c(=O)n1CC(=O)NCc1ccccc1F | 0 | -0.07 |
| CCC1CN(S(=O)(=O)CCc2c(F)cccc2F)CC2(CCOC2)O1 (stereo unspecified) | -10 | 1.51 |
| Cc1cnc(CN2C[C@]3(CCCN(C(=O)c4ccoc4)C3)CCC2=O)cn1 | -8 | 1.49 |
| CCCCNC(=O)c1nc(C)c(C)nc1C(=O)Nc1cccc(Cl)c1 | -29 | 3.43 |
| Cc1cc(C)n(CCn2ccnc2-c2cccc(-n3cccn3)c2)n1 | -23 | 2.91 |
| Cc1nccn1-c1ccnc(C(=O)NC[C@H]2CCCCN2CCO)c1 | 22 | -2.76 |
| Cc1cccc2c1ccn2CCNC(=O)CCCC(=O)N1CCN(c2ccccn2)CC1 | -13 | 1.86 |
| CCCc1cc(O)n2nc(N3CCOCC3)c(C#N)c2n1 | -12 | 1.71 |
| COc1ccc2cc1Oc1cccc(c1)CO[C@H]1CCN(C(=O)CCN3CCCC3=O)C[C@H]1NC(=O)CC2 | -6 | 1.07 |
| NC(=O)c1ccccc1OCC#CCNC(=O)c1ccc(=O)[nH]c1 | -17 | 2.13 |
| C[C@@]1(C(=O)NC2CCCCCC2)Cn2c(cc3occc32)C(=O)N1Cc1cccnc1 | -17 | 3.28 |
| Cc1ccccc1OC[C@H](C)NC(=O)N(C)CC(C)(C)O | -6 | 0.8 |
| Cc1cc(CNC(=O)N(C)Cc2c(C)noc2C)no1 | 0 | 0.02 |
| Clc1cnc(N[C@@H]2COCC[C@@H]2OCc2ccccc2)nc1 | -12 | 2.33 |
| Cc1ccccc1CC(C)(C)NC(=O)N[C@H]1CCS(=O)(=O)C1 | 1 | -0.17 |
| COC(=O)[C@@H]1CCCCN1CC(=O)Nc1cc(C2CCCC2)nn1-c1ccccc1 | 9 | -1.16 |
| CN(CCc1cnn(C)c1)Cc1ccc(-n2cccn2)cc1 | 4 | -0.8 |
| CN(Cc1ccc(Cl)cc1)CN1C(=O)C2C=CC1C2 (stereo unspecified) | -5 | 0.68 |
| COc1ccc(OC[C@@H](O)CN2CCC(O)CC2)c(CNC2(c3ccccc3)CC2)c1 | -3 | 0.48 |
| Cc1cc(NC(=O)c2ccnc(OC3CCOCC3)c2)sn1 | -6 | 1.13 |

| Structure (SMILES) | % Inhibition [%] | Z score |
| --- | --- | --- |
| Cc1ccc([C@@H]2C=C(c3ccccc3)N(CC(=O)Nc3ccccc3)c3nnnn32)cc1 | -5 | 0.8 |
| CN1CCN(C(=O)[C@H]2C[C@@](C)(C(=O)O)N(C)[C@H]2c2ccc(Cl)cc2)CC1 | -12 | 1.42 |
| Cc1cc(C)c(NC(=O)CN2c3ccccc3N(C3CC3)S2(=O)=O)c(C)c1 | -4 | 0.43 |
| CC(C)c1nn(-c2ccccc2)c(Oc2cccc(F)c2)c1CN(CC1CC1)C(=O)c1ccco1 | -13 | 1.18 |
| COCC(C)(C)NC(=O)c1cccc(Br)c1C | -8 | 0.84 |
| Cc1ccc(-c2noc(CN3CCc4sccc4C3)n2)cc1 | -13 | 1.43 |
| COc1cc(Cl)c(C)cc1-n1cc(C2CC2)nn1 | -9 | 1.05 |
| CCC[C@]1(COC)CCCN1Cc1nc(CS(C)(=O)=O)no1 | -7 | 1.19 |
| CN1CCCC(CN2C(=O)CN(C3CC3)C2=O)C1c1cccc(Cl)c1 (stereo unspecified) | -1 | 0.07 |
| O=C(CCc1cccs1)N1CCC2(CC1)[C@H](O)C[C@@H]2O | -9 | 1.48 |
| Cc1noc(C)c1N(C)C[C@@H]1CCC(=O)N1 | 7 | -1.06 |
| Cc1cccc(Cn2nc(CC(C)C)nc2CC2CNC2)c1 | 2 | -0.29 |
| Cc1cccc(Cl)c1NC(=O)[C@H](C)N1Cc2cnn(C)c2CC(C)(C)C1 | -5 | 0.59 |
| O=C(CN1CCCC[C@H]1c1nc(C2CC2)no1)Nc1cccnc1 | -7 | 1.26 |
| COc1cccc(CNS(=O)(=O)c2ccc3c(c2)OC[C@@H](C(=O)N2CCCCC2)O3)c1 | -12 | 1.99 |
| CN=C(NCc1nc(C)no1)NCc1ccccc1OC(C)(C)C | -8 | 0.86 |
| COCCOCCOc1ccc(CONC(=O)Cc2cccc3ccccc23)cc1 | -1 | 0.08 |
| Cc1cnc(CN2C[C@]3(CCCN(C(=O)CC(F)(F)F)C3)CCC2=O)cn1 | -13 | 1.9 |
| COc1ccc(CNC(=O)COCCc2ccccc2)c(OC)c1 | 4 | -0.44 |
| Cn1c(COc2ccc(F)cc2)nnc1N1CCOC(C)(C)C1 | -4 | 0.41 |
| NCCn1cc(C(=O)N[C@H]2CCC[C@H]2Cc2ccc(F)cc2)nn1 | -3 | 0.58 |
| CCCn1nc(C(=O)N2CCCN(C(C)=O)CC2)ccc1=O | -11 | 1.84 |
| CC(C)(Cc1ccc(O)cc1)C(=O)N1CCOc2ncccc2C1 | -3 | 0.56 |
| CC(C)(C)OC(=O)C(C)(C)c1nc([C@H]2CCCOC2)cs1 | -9 | 1.57 |
| CS(=O)(=O)N1CCc2cc(S(=O)(=O)NC3CCCCCC3)ccc21 | -5 | 0.82 |
| COc1ccc(F)cc1CN1CCC(Oc2cccc(F)c2)(C(=O)O)CC1 | -4 | 0.52 |
